From PubChem BioAssay AID624417 (National Center for Advancing Translational Sciences (NCATS), 2012)
The campaign covered roughly 410,000 compounds. About 6,400 (1.6%) were called active. Inconclusive means that the source gave no clear call. Such entries were picked first, then a sample of the others. Calls come from the whole dose curve; as a rule, active = well fitted inhibition curve with a large enough effect; inconclusive = small, poorly fitted or top-dose-only effect; inactive = no such curve, though single readings can be large or run the other way. A potency beside an inconclusive call is a rough fit, not a confirmed value.

The molecules below were run against Glucagon-like peptide 1 receptor (Homo sapiens) (UniProt P43220) (assay: qHTS of GLP-1 Receptor Inverse Agonists (Inhibition Mode)). Conditions: HEK293 GLP-1R CRE-luciferase, luminescence, 24 h, GLP-1R form is constitutively active; series mostly up to 38.3 µM.
UniProt P43220, sequence (P43220 whole entry, looked up): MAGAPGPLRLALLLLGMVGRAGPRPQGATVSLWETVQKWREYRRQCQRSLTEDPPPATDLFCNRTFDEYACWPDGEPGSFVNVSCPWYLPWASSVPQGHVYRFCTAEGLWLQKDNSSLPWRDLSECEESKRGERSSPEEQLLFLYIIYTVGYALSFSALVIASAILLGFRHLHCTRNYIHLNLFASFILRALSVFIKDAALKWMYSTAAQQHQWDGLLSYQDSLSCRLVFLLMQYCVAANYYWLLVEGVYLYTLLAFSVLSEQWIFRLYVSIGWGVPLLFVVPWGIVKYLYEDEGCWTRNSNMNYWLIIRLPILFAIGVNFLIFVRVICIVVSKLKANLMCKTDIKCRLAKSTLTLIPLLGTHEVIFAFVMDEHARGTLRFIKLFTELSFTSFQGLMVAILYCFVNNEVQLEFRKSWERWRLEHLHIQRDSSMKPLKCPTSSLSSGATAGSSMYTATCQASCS
How it was run: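 Luminescence readout: a drop in cAMP-driven luciferase signal flags inverse agonism at a constitutively active GLP-1R stably expressed in HEK293. Compound exposure lasted 24 hr at 37 deg C, 5% CO2.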
Note: nearly all actives have a fitted effect of over 55% in size.
Potency is the fitted concentration of half-maximal effect; tags give direction and shape of the fitted curve.

Potency, inactive:
COc1cc(C)ccc1OCCSc1nc2ccc(NC(=O)c3ccccc3F)cc2s1
CCn1nnc2sc3c(c2c1=O)CCC(C)C3 (stereo not given)
Cc1cc(C(=O)CSc2nc(N)cc(N)n2)c(C)n1C1CC1
Brc1cccc(OCCn2ccnc2)c1
Cc1ccc(C(=O)N/C(N)=N/c2nc3ccccc3o2)cc1
COC(=O)c1sccc1-c1ccc(/C=N/OC(=O)c2ccccc2)o1
C=CCN(CC=C)CCOc1ccc(C)cc1[N+](=O)[O-]
O=C(NCCc1ccc(Cl)cc1)C1CCN(S(=O)(=O)N2CCCC2)CC1
CCc1ccc(NC(=O)CCCc2nnc3n(C(C)CC)c(=O)c4sccc4n23)cc1 (stereo not given)
COc1ccccc1C(=O)Nc1ccc(S(=O)(=O)Nc2nc(C)cc(C)n2)cc1
COc1ccc(OC(=O)c2ccc3nsnc3c2)cc1
COc1cccc(CNC(=O)Cn2c(=O)nc(-c3ccccc3F)c3cc(Cl)ccc32)c1
CC(=O)N(c1ccc2oc(=O)sc2c1)S(=O)(=O)c1cccs1
COc1ccc(NC(=O)C2CCN(c3ccc(Sc4ccc(C)cc4)nn3)CC2)cc1
Nn1c(=O)[nH]c2ccccc2c1=O
Cc1ccc(Cl)cc1N1CCN(C(=O)COc2cc(=O)n(C)c3ccccc23)CC1

Potency, inconclusive:
CCOc1ccc(C2C(C(=O)OC)=CN(C(C)c3ccccc3)C=C2C(=O)OC)cc1 (stereo not given) 28.2 µM [inhibitor, single point]
O=S(=O)(c1ccc(C(F)(F)F)cc1)N1CCCN(c2ccc(C(F)(F)F)cn2)CC1 10 µM [inhibitor, single point]
O=C1SCCc2c1n(Cc1ccccc1)c1ccccc21 3.98 µM [inhibitor, partial curve, poor fit]
Cc1cccc(-c2ncc(CN3CCN(CC(C)C)C(CCO)C3)cn2)c1 (stereo not given) 14.1 µM [inhibitor, single point]
CN1/C(=C\C(=O)C[n+]2ccc(C(=O)c3ccccc3)cc2)C(C)(C)c2ccccc21 3.98 µM [inhibitor, partial curve, poor fit]
CC(=O)Nc1ccc2c(c1)C(N1CC3CCC(CC3)C1)c1ccccc1-2 (stereo not given) 22.4 µM [inhibitor, single point]
COc1ccc(C(=O)CCS(=O)(=O)c2ccc(C)cc2)cc1OC 11.2 µM [inhibitor, partial curve, poor fit]
Cc1ccc(NC(=O)c2ncn(CCCNCc3ccccc3)n2)cc1C 11.2 µM [inhibitor, partial curve, poor fit]
COc1ccc(-c2cc(C(=O)N3CCN(Cc4ccc5c(c4)OCO5)CC3)on2)cc1OC 28.2 µM [inhibitor, single point]
CN1CCN(c2ccccc2NC(=O)c2cc3c(s2)-c2ccccc2OC3)CC1 10 µM [inhibitor, partial curve, poor fit]
N#C/C(=C/N1CCOCC1)c1ccccc1 22.4 µM [inhibitor, single point]
CC(C)[C@H](NC(=O)OCc1ccccc1)C(=O)OCC(=O)N1CCN(c2ccc(F)cc2)CC1 12.6 µM [inhibitor, partial curve, poor fit]
Cc1ccc([C@@H]2C[C@H]3[C@@H](CN2S(=O)(=O)c2ccc(Cl)cc2)C(=O)C[C@@H](c2cccc(Cl)c2)N3S(=O)(=O)c2ccc(C)cc2)cc1 6.31 µM [inhibitor, partial curve, poor fit]
CCc1ccc(C(=O)Nc2ccc3nc(C)ccc3c2)cc1 11.2 µM [inhibitor, single point]
Cc1cc2cc(CNC(=S)Nc3ccc(OC(F)F)cc3)ccc2[nH]1 22.4 µM [inhibitor, single point]
CC(C)(C)OC(=O)N(CCc1ccccc1)Cc1ccc(OCc2cccc(NC(=O)C3CCCC3)c2)cc1 8.91 µM [inhibitor, partial curve, poor fit]
C=C1CC2(OC1=O)c1ccccc1CCc1ccccc12 28.2 µM [inhibitor, single point]
Cc1c(Cl)cccc1NC(=S)N1CCN(Cc2ccccc2)CC1 12.6 µM [inhibitor, partial curve, poor fit]
Cc1ccc(NC(=O)CS(=O)CC(=O)N(CC(=O)NC(C)(C)C)c2cccc(C)c2C)cc1 (stereo not given) 31.6 µM [inhibitor, single point]
O=[N+]([O-])c1ccc(Cl)c(CN2CCN(c3ncc(Cc4ccccc4)cn3)CC2)c1 8.91 µM [inhibitor, partial curve, poor fit]
O=[N+]([O-])c1c(Nc2cccc(O)c2)cc(Cl)c2nonc12 7.08 µM [inhibitor, partial curve, poor fit]
Cc1cc(C)c2cc(CN(Cc3ccco3)C(=S)NCC3CCCO3)c(=O)[nH]c2c1 (stereo not given) 12.6 µM [inhibitor, single point]
COc1cccc(OCC(O)CN2CCN(CCN3C(=O)c4cccc5cccc(c45)C3=O)CC2)c1 (stereo not given) 11.2 µM [inhibitor, single point]
CN1CCc2c(n(CC(O)CNCc3ccccc3)c3ccccc23)C1=O (stereo not given) 15.8 µM [inhibitor, single point]
O=C(NC1C=CS(=O)(=O)C1)c1sc2ccccc2c1Cl (stereo not given) 28.2 µM [inhibitor, single point]
COc1ccccc1Oc1ccc(N/C=C/C(=O)c2ccco2)cc1 20 µM [inhibitor, single point]
COCCNc1nc(Nc2ccc(C)cc2C)c2sc(-c3ccccc3)cc2n1 7.94 µM [inhibitor, partial curve, poor fit]
CCc1ccc(OC(C)C(=O)N(Cc2ccccc2)C2CCS(=O)(=O)C2)cc1 (stereo not given) 8.91 µM [inhibitor, partial curve, poor fit]
CCCOc1ccc(CC(=O)N/N=C\c2ccc(F)cc2)cc1 1.26 µM [inhibitor, partial curve, poor fit]
CCN(CC)c1ccc(NC(=O)c2ccc(Cl)nc2)cc1 8.91 µM [inhibitor, partial curve]
CCOC(=O)c1ccccc1NC(=O)CSc1cn(CC(=O)N2CCCCCC2)c2ccccc12 11.2 µM [inhibitor, partial curve, poor fit]
COc1ccc(C(=O)NCC(=O)N/N=C/c2c(C)[nH]c3ccccc23)cc1 10 µM [inhibitor, partial curve, poor fit]
COc1ccc(Nc2oc(/C=C/c3cc(OC)c(OC)c(OC)c3)nc2C#N)cc1 28.2 µM [inhibitor, single point]
Cc1ccc2nc(-c3ccccc3)cc(C(=O)N3CCc4ccccc4C3)c2c1 11.2 µM [inhibitor, partial curve, poor fit]
Cc1cccc(OCc2nnc(SCC(=O)N3c4ccccc4Sc4ccc(Cl)cc43)o2)c1 5.62 µM [inhibitor, full curve, poor fit]
CCc1c(C2(O)CCCCC2)[nH]c2cc(C(F)(F)F)ccc12 11.2 µM [inhibitor, partial curve, poor fit]
Cc1ccc(N2C(=O)c3cccc(Oc4ccc(Cl)cc4)c3C2=O)c(C)c1 28.2 µM [inhibitor, single point]
Cc1cc(Br)c2[nH]c3c(c2c1)CCCC3=O 11.2 µM [inhibitor, partial curve, poor fit]
O=c1c2c3c(sc2nc(NCCO)n1Cc1ccco1)CCCCC3 3.16 µM [inhibitor, full curve]
Cc1ccc(N=N/C(=C\O)C(=O)c2ccncc2)cc1 28.2 µM [inhibitor, single point]
Cc1cccc(C(=O)O/N=C(\N)Cc2cccc3ccccc23)c1 28.2 µM [inhibitor, single point]
COc1ccc2[nH]c(=O)c(CN(CCN3CCCC3)C(=O)Nc3ccccc3Cl)cc2c1 3.55 µM [inhibitor, partial curve, poor fit]
Cc1nn(Cc2ccc(Cl)cc2)c(Cl)c1/C=N/NC(=O)c1cccnc1 28.2 µM [inhibitor, single point]
COc1cccc(NC2=Nc3cccc4cccc2c34)c1 28.2 µM [inhibitor, single point]
COc1cc(C=C(c2nc3ccccc3s2)c2nc3ccccc3s2)cc(OC)c1O 28.2 µM [inhibitor, single point]
NNC(=O)c1cccc(COc2ccccc2Br)c1 7.94 µM [inhibitor, partial curve, poor fit]

Potency, active:
Cc1ccc(C(=O)O/N=C(\N)c2ccccn2)c(Cl)c1 1.12 µM
CCOc1ccc(CN2CCC(C(=O)Nc3cccc(-c4ccn[nH]4)c3)CC2)cc1Cl 10 µM
COc1cc(-c2nc(-c3ccccc3)c(-c3ccc(Br)cc3)[nH]2)cc(OC)c1O 11.2 µM
